# Laboratory results: the supplement of paper PMC12067230
# This is a noisy data set.
# Test: amyloid nucleation score relative to library mode (yeast Sup35 reporter selection) (log enrichment difference); higher = more amyloid nucleation; sequences are the first 22 residues of the Bri2 peptide extended by up to 12 random residues
# Settings: random library (experiment): 1;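 active = nucleation score significantly above 0 at FDR 0.05; inactive = not significantly above 0 or absent from output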
# 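Also: [psi-pin-] Saccharomyces cerevisiae expressing SupN fusions, induced by 100 µM Cu2SO4, selected 7 d at 30 °C without adenine and uracil, scored by deep sequencing of output versus input.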
row,Sequence,amyloid nucleation score
1,EASNCFAIRHFENKFAVETLICGFAVTCLARGGA,0.856
2,EASNCFAIRHFENKFAVETLICALCTHTWRGRRA,6.45
3,EASNCFAIRHFENKFAVETLICLPSEG,inactive
4,EASNCFAIRHFENKFAVETLICRCPVCFRCVWNG,inactive
5,EASNCFAIRHFENKFAVETLICAHCEAKCCRFDV,3.65
6,EASNCFAIRHFENKFAVETLICDGSMPGYPLERG,inactive
7,EASNCFAIRHFENKFAVETLICWTDKVSLYWIGR,inactive
8,EASNCFAIRHFENKFAVETLICYGESRYACRAKV,inactive
9,EASNCFAIRHFENKFAVETLICCKWLKHSSYMRV,inactive
10,EASNCFAIRHFENKFAVETLICEKIMSFATVVHG,inactive
11,EASNCFAIRHFENKFAVETLICRREVNLYMGLCG,-0.25
12,EASNCFAIRHFENKFAVETLICGQMYSLDLRDQR,inactive
13,EASNCFAIRHFENKFAVETLICQRDDGRTCYEIQ,-0.029
14,EASNCFAIRHFENKFAVETLICEFRLGCIPVRRA,inactive
15,EASNCFAIRHFENKFAVETLICMLKDEYGTSHGS,inactive
16,EASNCFAIRHFENKFAVETLICVAVVSALPEGT,0.903
17,EASNCFAIRHFENKFAVETLICVKWSENVNCMAC,inactive

# Same assay, conditions: random library (experiment): 2
row,Sequence,amyloid nucleation score
1,EASNCFAIRHFENKFAVETLICQYGQCLW,8.41
2,EASNCFAIRHFENKFAVETLICRALFVFSPVSFA,2.56
3,EASNCFAIRHFENKFAVETLICGTCID,6.5
4,EASNCFAIRHFENKFAVETLICLSFLDPLVAGMR,inactive
5,EASNCFAIRHFENKFAVETLICVTLC,5.66
6,EASNCFAIRHFENKFAVETLICAWSM,2.69
7,EASNCFAIRHFENKFAVETLICVFFNMRLWACHV,inactive
8,EASNCFAIRHFENKFAVETLICKTNIVSIEDLYV,-8.88e-16
9,EASNCFAIRHFENKFAVETLICRGST,inactive
10,EASNCFAIRHFENKFAVETLICFSFYYQGAFIGQ,2.62
11,EASNCFAIRHFENKFAVETLICNHVMVIDNVVYW,8.55
12,EASNCFAIRHFENKFAVETLICLSETFNNIPKAL,0.261
13,EASNCFAIRHFENKFAVETLICAQVHMFYPYSPL,inactive
14,EASNCFAIRHFENKFAVETLICYLPYCCVESLIP,4.43

# Same assay, conditions: random library (experiment): 3
row,Sequence,amyloid nucleation score
1,EASNCFAIRHFENKFAVETLICGEVAVTCWHRLG,inactive
2,EASNCFAIRHFENKFAVETLICLSRCGL,inactive
3,EASNCFAIRHFENKFAVETLICVRRLNYAMPGGW,4.62
4,EASNCFAIRHFENKFAVETLICVRKMDAAVQGAA,inactive
5,EASNCFAIRHFENKFAVETLICFPIRESFGQCSF,6.67
6,EASNCFAIRHFENKFAVETLICVVHACGWGLVH,inactive
7,EASNCFAIRHFENKFAVETLICIVVA,inactive
8,EASNCFAIRHFENKFAVETLICFSNTWPCEARYR,2.47
9,EASNCFAIRHFENKFAVETLICGSMAMTSQVGLR,1
10,EASNCFAIRHFENKFAVETLICAFRV,1.47
11,EASNCFAIRHFENKFAVETLICMLPVSTHQFSGE,3.67
12,EASNCFAIRHFENKFAVETLICGARTHLPTACPV,inactive
13,EASNCFAIRHFENKFAVETLICYVYGAVMKQCRW,inactive
14,EASNCFAIRHFENKFAVETLICDCPPGAKNRRCQ,7.84
15,EASNCFAIRHFENKFAVETLICVKIELNSKATTE,0.0651
16,EASNCFAIRHFENKFAVETLICCSYACAPTWYGP,9.4
17,EASNCFAIRHFENKFAVETLICRHDKVLLTECSH,inactive
